The text below walks through data of paper PMC12136788.

First the molecules themselves.
T1: UNK ZnF1-3 (human, UniProt Q9C0B0 31-174)
T1 sequence: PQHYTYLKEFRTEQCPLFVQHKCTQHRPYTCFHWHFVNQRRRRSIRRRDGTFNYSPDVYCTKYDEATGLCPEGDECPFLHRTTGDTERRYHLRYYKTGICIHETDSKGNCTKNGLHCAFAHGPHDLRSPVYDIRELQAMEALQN

B1: chr13:42873578:42873579:+_ENSG00000023516_ENST00000025301|hu_hu|motif|central (ssRNA)
RNA: GGGAGUUCUACAGUCCGACGAUCUUUAGCCAAUGACUUCUGCUGUCCAGAGCUAAUGAGAAUCUUUAAAUCAUGGGUUUCGGAAUGAUGACCAGUAACCGUCUGGGAAGCAGCAUCACACUGGCUCCUUAGCACAGUAAUGUUCAACAGAGGAUUGAGCAUCA
B2: chr4:144465060:144465061:+_ENSG00000153147_ENST00000283131|hu_hu|motif|central (ssRNA)
RNA: GGGAGUUCUACAGUCCGACGAUCAUAGUCUUCUCCUUCGAAGUUAUAAACACUUGACUCUGUAUCCAUUGUAAAGUUUCGGAGUGAACUUUCGCCCAUCUUGGAGAGCUUUUCAUUCAUCUCUGCAGUCUUCUUUGCACCUCUCAACAGAGGAUUGAGCAUCA
B3: chr8:59070621:59070622:+_ENSMUSG00000038206_ENSMUST00000040218|mus_hu|motif|central (ssRNA)
RNA: GGGAGUUCUACAGUCCGACGAUCGAUAAACAAAAUUAGGAAAAAUUCUGCAAAAUUAUUUAGUUCCCCAAGGAAAUUACGGAAAUAGAAAAUGGCAAAAGAAAAAAAGGUUGCACACUGAAGCUUGAUUGUAUACUCAGGCUACAACAGAGGAUUGAGCAUCA
B4: chr5:24319680:24319681:-_ENSMUSG00000028945_ENSMUST00000030787|perfect_dup|motif|central (ssRNA)
RNA: GGGAGUUCUACAGUCCGACGAUCAAGUUGAAGAUGAUAUUCUUGUCCAUUUACUGUGAUCAACUUUGUAAAAGUGUUUUCGGUGGUUGGAUCGUAGGAGUCCACAAAUUGGCCUUCAACAAAUUGAAUCGUCAAUGAGGAUUUCAACAGAGGAUUGAGCAUCA
B5: 72170461_72172070_6263_CDS_ENSG00000066933_ENST00000356056|human|control|control (ssRNA)
RNA: GGGAGUUCUACAGUCCGACGAUCCACUGGAGAUUCACCCAGUGAAUCACGCUGCUCAAGCCUCAUCGUCUUUUCCAGAAUCUGUUCAAAUAGUGCAUAGAGGUCUUUAUACCGUAUGCUUUUCCCAUCAUCCAUCGCCAAUGCCAACAGAGGAUUGAGCAUCA
B6: chr7:75932113:75932114:+_ENSG00000106211_ENST00000248553|hu_hu|hu_hu_hu_mus_False|1_78 (ssRNA)
RNA: GGGAGUUCUACAGUCCGACGAUCCUGCGACCACUCAUCGGGCAACCGGGGCACCCCGAAGGCCUGGUCGAAGAGGCGGCUGUGUGCAGGGUACCAGUCCCGGAAUGGUUCCCAGCUCGGGCUCCGCAGCAGCGAGAGGACGCGCAACAGAGGAUUGAGCAUCA
B7: chrX:50352303:50352304:+_ENSMUSG00000025630_ENSMUST00000026723|mus_mus|FALSE|FALSE (ssRNA)
RNA: GGGAGUUCUACAGUCCGACGAUCCGGCAUAAUGAUUAGGUAUACAAAACAAAUCUAGGUCAUAACCUGGUUCAUCAUCGCUAAUCACGACGCUGGGACUGCGGGUCGGCAUGACGGGACCGGUCGGCUCGCGGCAAAAAGCGGCAACAGAGGAUUGAGCAUCA
B8: chr19:10652113:10652114:+_ENSMUSG00000034445_ENSMUST00000168445|mus_mus|motif|central (ssRNA)
RNA: GGGAGUUCUACAGUCCGACGAUCAAGGAAGCGGCGGAACCACCACUGGAACCCAUAACCCGGCUCUCCCAGCCCGGGUUCGGUCCCACCCUUAGCCACACAGUGGGACACCUUGGGGGCAGGUCUCUGGGACCCGCCGGUCAGCAACAGAGGAUUGAGCAUCA
B9: 46559633_46559753_1807_CDS_ENSG00000123200_ENST00000242848|human|control|control (ssRNA)
RNA: GGGAGUUCUACAGUCCGACGAUCGUCAUGGGCAUCACGAGUGGACCGAGAAUCUCUGGGAUCACGGCUCUCUUUGGUAUCUCUGCUAUAAUCUCUCAUCUCCCUUGAGUCCCGCAUGUCUCUGGAGUCUCUUAGUUCCCUUCGCAACAGAGGAUUGAGCAUCA
B10: chr6:41757443:41757444:+_ENSG00000214736_ENST00000398881|hu_mus|hu_hu_hu_mus_False|18_78 (ssRNA)
RNA: GGGAGUUCUACAGUCCGACGAUCGAACCGUGCAGAGGCAACAUCUCAGCCGACACUGUGGACUCAAGGGGCAGUGGGGGGGGGUUCAGGCAAGGAGAGGGAGUCAACUUCAGCUGCUCAAACUUCAGGAUCUUGUGGUCACAGCAACAGAGGAUUGAGCAUCA
B11: chr9:123526118:123526119:-_ENSG00000119402_ENST00000608872|hu_hu|motif|central (ssRNA)
RNA: GGGAGUUCUACAGUCCGACGAUCGAGUUCCAGGGUAAGAGGCCCGGUCUCUAACCUUCCAGCUCACUGCUCUUUUCUGCGGUACCAGGGCACCGCUGUGCAGUCAUCCAGGCUGCCGGGGACUAGCUUCCCCGACAUGGCAACCAACAGAGGAUUGAGCAUCA
B12: chr1:184392483:184392484:+_ENSMUSG00000026510_ENSMUST00000117245|mus_hu|FALSE|FALSE (ssRNA)
RNA: GGGAGUUCUACAGUCCGACGAUCUUUUAAAGUCAGCUAUGAUCUUGACAAAUAUUACGGGUAAGUCUGUAGCAAGUUUCUAAUUUCUGAGAUACAAAAGACAAUAAAUACAGAUUAAAAUUCAGCCUACAAACAAGAUUCUACCAACAGAGGAUUGAGCAUCA
B13: chr19:16212804:16212805:+_ENSG00000167460_ENST00000300933|hu_mus|hu_hu_hu_mus_False|68_98 (ssRNA)
RNA: GGGAGUUCUACAGUCCGACGAUCAACAAUUCUGGAGAAGAACAUCAAUGUAACAUGGAACAGCAUUCCAUCUAUUACAGAAGGCACAUGGGCAACAAUGAUCACCCCAGCAUUCUCGCUUGGAAUGCUUAAAGACAAUCUGUUCAACAGAGGAUUGAGCAUCA
B14: chrX:71549762:71549763:+_ENSMUSG00000019087_ENSMUST00000019231|mus_mus|mus_mus_mus_hu_False|1_28 (ssRNA)
RNA: GGGAGUUCUACAGUCCGACGAUCAAACCCGUGUACUUCUUAUUGUUAGCACAACAUCACCAGAAAACGAUAACGACAGCCAAGCAGGACAGACAGUUAAGUAGUACUUCCACACCUCCAAACUCAGGGAGCCCUAUAGUUCAUCAACAGAGGAUUGAGCAUCA
B15: 172128880_172129000_2286_3pUTR_ENSMUSG00000026667_ENSMUST00000150821|mouse|control|control (ssRNA)
RNA: GGGAGUUCUACAGUCCGACGAUCCAGGGCAGCAGGGCAGAUGGGGGAGGAGGGUCUGUGAUGAGCUGCCUUCUCUGCACUCUUCUCUUUUCCCGUCACUGUGCAUCUAACUUUUAUCUGAUCCAUUUCAAUUUCCCAUUAUAGCAACAGAGGAUUGAGCAUCA
B16: chr7:141450121:141450122:+_ENSG00000106028_ENST00000265304|hu_mus|hu_hu_hu_mus_True|28_88 (ssRNA)
RNA: GGGAGUUCUACAGUCCGACGAUCUCAUCCGUUCUAUGCCUUUUCUUUCGUCUGGUCACUCAGAAAUAUAAUGUUAUCAGCUAUGAUUGUUGUUGCUUGCCGCCUCACAUUAUUUUUAUCCAUGUACUCGCCAUAGUCCACUUUCAACAGAGGAUUGAGCAUCA
B17: 109884154_109885750_836_3pUTR_ENSMUSG00000028546_ENSMUST00000106598|mouse|control|control (ssRNA)
RNA: GGGAGUUCUACAGUCCGACGAUCGUUCUGUAGCACCGCUGGGCUUCUGGCCAUUCAGUCCUUUGAUGGCUUCUUCUGCCUCAAUCCUCUUAUCAAAGCGGAUGAAUCCCACCCCUCUAGAGACCCCUGUGACUUGAUCAACCACAACAGAGGAUUGAGCAUCA
B18: chr8:74858975:74858976:-_ENSG00000154582_ENST00000284811|hu_mus|hu_hu_hu_mus_True|8_108 (ssRNA)
RNA: GGGAGUUCUACAGUCCGACGAUCGACCUUGUACGUAAAAUACAUGCACACUUUUGAUAGCACAUGUGAGGGGAUCUCUCUAAAAUUGACCUCGUUGGUUUCAUUCUCAGCAAACUGACCUGGACCACUCAACAUGGCCUUUAUCAACAGAGGAUUGAGCAUCA
B19: chr1:46159521:46159522:+_ENSG00000159596_ENST00000372025|hu_hu|motif|central (ssRNA)
RNA: GGGAGUUCUACAGUCCGACGAUCUUUUUAUACUUGACCAGGUCUCUUAUGUCCUUUUUCUGGAAAACUACUUUUAACGGCGGAAGUGAUUAUAAAUGAAAAAGUGGCCAAUAAAGUGACUACUAUCCUCAGGGCUUUAAACCACAACAGAGGAUUGAGCAUCA
B20: 30262637_30263328_1237_CDS_ENSMUSG00000026853_ENSMUST00000028207|mouse|control|control (ssRNA)
RNA: GGGAGUUCUACAGUCCGACGAUCCUCUCGGUUAACUUUGUCUUUAAUGAGGUUGUUGUAGGCCUUGGCCCAGGUGUUUCGGUGGUUGGAGGUUAGGAUGCCAACAGGCUCUUUGUUGGAUUGCAGUGAGGAAUUCCAUAUUUUCAACAGAGGAUUGAGCAUCA
B21: chr5:33461064:33461065:+_ENSG00000113407_ENST00000502553|hu_mus|motif|central (ssRNA)
RNA: GGGAGUUCUACAGUCCGACGAUCUGUGAGCCCGGUGAGAGCCCCCGAGAGCUCAUUCCUAUGCAGCACACCAAAGUCAGCGGGCCGCAGGGGCAGCUCUCGCCAGGACCGUGGCCGGUGAUCGAACAUCAGGCAGUGUCCCGGCAACAGAGGAUUGAGCAUCA
B22: chr7:112757510:112757511:-_ENSG00000214194_ENST00000397764|hu_mus|motif|central (ssRNA)
RNA: GGGAGUUCUACAGUCCGACGAUCCUUUCUUGCGUAUAUCCCCAAGCAAGCACAGAUGCCGGUAAUGCUGAGAACCACACCGGAUAAGAGUGCAAUCGCGUCUCCAGCUUCCACUGCUUCAACAACAGGCAGGAUCAAAAGCAGCAACAGAGGAUUGAGCAUCA

This is one part of the list.

The test concerns the target T1, UNK ZnF1-3. Description: nsRBNS (natural sequence RNA bind-n-seq); RBNS binding buffer (assumed for nsRBNS): 25 mM Tris pH 7.5, 150 mM KCl, 3 mM MgCl2, 0.01% Triton X-100, 500 ug/ml BSA, 20 U/ml SUPERase-In, 4 C; UNK is unkempt and MSI1 is Musashi-1; names of the RNAs are library labels; protein concentration not given here; high values mean tight binding.
B1: the binding signal stood at 0.869 enrichment R.

Molecule B2 displayed a binding signal of 0.348 enrichment R.

Consider B3, for which the binding signal worked out at 2.85 enrichment R.

The molecule B4 yielded a binding signal of 0.867 enrichment R.

In the case of B5, the binding signal was found to be 0.575 enrichment R.

B6 came in with a binding signal of 0.463 enrichment R.

B7 had a binding signal of 0.466 enrichment R.

The molecule B8 had a binding signal of 0.505 enrichment R.

With B9, the binding signal is 0.749 enrichment R.

With B10, the binding signal worked out at 2.27 enrichment R.

On to B11, for which the binding signal came to 0.639 enrichment R.

Molecule B12 came in with a binding signal of 0.89 enrichment R.

In turn, B13 returned a binding signal of 0.877 enrichment R.

B14 had a binding signal of 1.51 enrichment R.

In turn, B15 showed a binding signal of 0.764 enrichment R.

The molecule B16 yielded a binding signal of 0.463 enrichment R.

Turning to B17, the binding signal worked out at 1.11 enrichment R.

In turn, B18 displayed a binding signal of 0.616 enrichment R.

With B19, the binding signal is 1.17 enrichment R.

On to B20, for which the binding signal was 0.621 enrichment R.

B21 yielded a binding signal of 1.16 enrichment R.

For the molecule B22, the binding signal worked out at 0.895 enrichment R.
